PMC4336329 (PLoS ONE, 2015)
Out of some 310,000 compounds screened, about 14,000 (4.5%) showed an effect of 50% or more. Effects have a minus sign here. The list shows a part of the results.

Each compound was assayed against human ether-à-go-go-related gene (hERG) potassium channel (human, UniProt Q12809) (assay: primary screen, population patch clamp on CHO cells stably expressing hERG).
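Also: peak tail current of the secondary pulse compared with the same well before compound.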

Sequence of human ether-à-go-go-related gene (hERG) potassium channel (Q12809 whole entry, looked up): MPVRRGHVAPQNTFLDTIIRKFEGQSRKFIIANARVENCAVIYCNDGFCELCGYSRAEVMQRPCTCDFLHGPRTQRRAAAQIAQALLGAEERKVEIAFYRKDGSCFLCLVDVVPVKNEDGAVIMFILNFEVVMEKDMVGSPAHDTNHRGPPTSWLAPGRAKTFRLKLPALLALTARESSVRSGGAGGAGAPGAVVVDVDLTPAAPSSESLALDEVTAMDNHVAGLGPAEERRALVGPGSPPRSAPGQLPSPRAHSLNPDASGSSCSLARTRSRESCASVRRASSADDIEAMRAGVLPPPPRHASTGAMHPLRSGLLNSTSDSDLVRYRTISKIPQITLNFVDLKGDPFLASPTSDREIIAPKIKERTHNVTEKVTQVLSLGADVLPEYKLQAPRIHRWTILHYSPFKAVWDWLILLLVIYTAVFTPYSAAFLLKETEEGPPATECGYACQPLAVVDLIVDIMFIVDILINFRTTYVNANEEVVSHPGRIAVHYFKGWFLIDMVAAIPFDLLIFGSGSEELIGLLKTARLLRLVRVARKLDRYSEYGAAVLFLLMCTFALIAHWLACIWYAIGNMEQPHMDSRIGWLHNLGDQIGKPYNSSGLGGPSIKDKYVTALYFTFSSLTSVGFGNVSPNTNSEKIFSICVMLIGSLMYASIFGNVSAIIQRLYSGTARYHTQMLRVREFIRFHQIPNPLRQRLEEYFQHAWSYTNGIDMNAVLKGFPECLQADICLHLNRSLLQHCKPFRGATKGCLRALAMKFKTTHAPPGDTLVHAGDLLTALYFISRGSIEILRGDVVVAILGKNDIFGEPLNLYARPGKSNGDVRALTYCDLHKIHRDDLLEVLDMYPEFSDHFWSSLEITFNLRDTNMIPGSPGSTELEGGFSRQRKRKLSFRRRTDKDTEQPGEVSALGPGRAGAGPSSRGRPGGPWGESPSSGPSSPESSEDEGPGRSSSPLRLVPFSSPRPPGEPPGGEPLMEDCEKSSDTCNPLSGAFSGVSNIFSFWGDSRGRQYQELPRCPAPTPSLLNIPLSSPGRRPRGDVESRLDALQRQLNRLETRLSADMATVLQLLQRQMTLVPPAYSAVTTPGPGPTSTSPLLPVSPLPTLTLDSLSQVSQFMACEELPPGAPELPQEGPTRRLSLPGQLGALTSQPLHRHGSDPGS

| Compound | hERG current change (%, negative = inhibition) at 10uM |
| --- | --- |
| O=C(CNC(=O)c1ccc(Cl)cc1)Nc1ccccc1C(F)(F)F | 12.6% |
| O=C(C(Sc1ccccc1)c1ccc(Br)cc1)N1CCOCC1 (stereo not shown) | -29.5% |
| COc1ccc(N2C(=O)C3CCCN3C2c2ccccc2)cc1 (stereo not shown) | -0.765% |
| Cc1ccc(S(=O)(=O)N2CCC(C(=O)Nc3ccccc3N3CCCC3)CC2)cc1C | -0.74% |
| CC(C)OC(=O)CSc1nnc(-c2ccccn2)n1N | 16% |
| O=C(Nc1ccccc1-c1nnn(CC(=O)N2CCCc3ccccc32)n1)c1ccco1 | -20.8% |
| S=c1[nH]cc(-c2ccc(Cl)cc2)n1-c1ccccc1 | -0.267% |
| O=C(CCCCCCN1C(=O)c2ccccc2C1=O)N1CCC(c2ccccc2)C1 (stereo not shown) | -39.7% |
| CC(C)[C@H](NC(=O)c1cc2cc(Cl)ccc2n1C)C(=O)N[C@@H](C(=O)O)c1ccccc1 | 15.9% |
| CCn1c(P(C)(=O)[O-])nc2cc(NC(=O)c3ccccc3F)ccc21.[K+] | 23.2% |
| CCn1c(=O)c2cc(S(=O)(=O)NC3CCCCC3)ccc2n(CC)c1=O | -8.77% |
| CCOC(=O)/C=C/C(=O)Nc1ccc(Oc2ccccc2)cc1 | 5.06% |
| CCCCOc1ccc(CN2CCN(CCO)CC2)cc1 | 4.3% |
| O=S(=O)(CCc1nc2ccccc2s1)c1ccc(Cl)cc1 | -2.67% |
| CCn1c(=O)c2c(nc3n2CCCN3CCc2ccccc2)n(C)c1=O | -21.2% |
| COc1ccc2c(=O)c3ccccc3oc2c1 | -1.23% |
| NNS(=O)(=O)c1ccc(N2CCCC2=O)c([N+](=O)[O-])c1 | 21.8% |
| CCOC(=O)C1=CCC2c3c(c4ccccc4n3C)C(=O)C1N2C(=O)OC(C)(C)C (stereo not shown) | 9.47% |
| O=C(O)c1cc(Cl)ccc1NC(=O)C1CCCO1 (stereo not shown) | 0.306% |
| Cc1c(NC(=O)C(C)N2C(=O)c3ccccc3C2=O)c(=O)n(-c2ccccc2)n1C (stereo not shown) | 12.8% |
| COc1cc(S(=O)(=O)N2CCN(c3ccccc3)CC2)ccc1F | 20.5% |
| COc1ccc(Cc2nnc(NC(=O)c3cccc([N+](=O)[O-])c3C)s2)cc1 | 0.56% |

| Compound | hERG current change (%, negative = inhibition) at 10uM |
| --- | --- |
| O=c1[nH]c(N2CCN(c3ccccc3)CC2)nc2c1CCC2 | 1.59% |
| O=C(NCc1ccccn1)c1ccco1 | 14.8% |
| COC(=O)c1sc(N2CCN(Cc3ccccc3)CC2)nc1N | 11.7% |
| O=C(O)c1nnn(-c2cccc(C(F)(F)F)c2)c1-c1ccccc1 | 13.6% |
| Cc1ccc(NC(=O)CCc2nnc3ccc(N4CCC5(CC4)OCCO5)nn23)nc1 | 4.15% |
| O=C(Nc1ccc(C(=O)O)cc1)/C(=C/c1ccc2c(c1)OCO2)NC(=O)c1cccc(Br)c1 | 7.25% |
| CC(=O)N1CCN(C(=O)c2cccc(NS(=O)(=O)c3ccc(Br)cc3)c2)CC1 | 1.69% |
| COc1nc(NCC(C)C)nc(Oc2ccc(OCc3ccccc3)nn2)n1 | -26.5% |
| Cc1ccc(NS(=O)(=O)c2ccc(/C=C/C(=O)O)cc2)cc1Cl | 9.88% |
| COc1ccc(NC(C)=O)cc1NC(=O)CN1CCN(C2c3ccccc3-c3ccccc32)CC1 | 3.55% |
| O=C(NCCc1ccccc1)C1CCCN(c2nc3ccccc3s2)C1 (stereo not shown) | 4.09% |
| Cc1ccnc(NC(=O)C(C)N2C(=O)c3ccccc3S2(=O)=O)c1 (stereo not shown) | 6.37% |
| CC1(C)C2CCC(C2)C1(C)NC(=O)CN1CCN(Cc2ccccc2)CC1.Cl (stereo not shown) | 7.77% |
| Cn1c(=O)[nH]c(=O)c2c1nc(SCCO)n2CCCc1ccccc1 | -4.68% |
| COc1cc2nc(SCC(=O)NCCc3ccccc3)n(Cc3ccco3)c(=O)c2cc1OC | -43.3% |
| O=C(Cc1cccc(C(F)(F)F)c1)Nc1cc(S(=O)(=O)N2CCOCC2)ccc1N1CCCC1 | -25.5% |
| COc1cccc(CCNC(=O)c2ccc(OC)c(OC3CCN(C(C)C)CC3)c2)c1 | -57.4% |
| COc1cc(/C=C2\SC(=Nc3ccc(O)cc3)NC2=O)cc(OC)c1OC | 11.3% |
| COC(=O)CSc1nnc(-c2cccc(NC(=O)c3ccc(C)cc3)c2)n1C | -34.9% |
| O=C(C(=O)N1CC=C(c2ccccc2)CC1)c1c[nH]c2ccccc12 | 3.04% |
| COc1cccc(/C=C(\C)C(=O)c2c(C)cc(C)[nH]c2=O)c1OC | 11.2% |
| COC(=O)C1=C(c2cccc(OCc3ccccc3)c2)C[C@@H]2CC[C@H]1N2C(=O)NCc1ccc2[nH]ccc2c1 | 16.1% |

| Compound | hERG current change (%, negative = inhibition) at 10uM |
| --- | --- |
| N#CC1(Cc2ccccc2)c2ccccc2C=CN1C(=O)c1ccccc1 (stereo not shown) | 15.3% |
| COc1ccccc1C(=O)Nc1ccc2c(c1)nc(CN1CCCCC1)n2C | -21.8% |
| CCc1ccc(N(CC(=O)O)S(=O)(=O)c2c(C)noc2C)cc1 | 15.8% |
| NS(=O)(=O)c1ccc(NC(=O)c2cccc(N3C(=O)c4ccccc4C3=O)c2)cc1 | 13.3% |
| COc1ccccc1C1NC(=O)c2ccccc2O1 (stereo not shown) | -7.19% |
| Cc1ccc(NC(=O)CCC(=O)N/N=C/c2ccc(O)cc2O)cc1 | 15.3% |
| CCOC(=O)c1nnc2cc(C)nn2c1C | 16.5% |
| O=c1oc2c(CN3CCOCC3)c(O)ccc2c2ccccc12 | -20% |
| Cc1ccc(NC(=O)Cn2c(O)c(N=NS(=O)(=O)c3ccc(C)cc3)c3ccccc32)cc1 | 0.453% |
| CCCCNC(=O)CSc1nc2ccsc2c(=O)n1C1CCN(C(=O)OCC)CC1 | -22.2% |
| CCO.C[C@H]1c2cccc(O)c2C(O)=C2C(=O)[C@]3(O)C(O)=C(C(N)=O)C(=O)[C@@H](N(C)C)C3[C@@H](O)C21.Cl.O (stereo partly shown) | 16.1% |
| Cc1cccc(N(Cc2ccccc2)C(=O)CSC(C)C(=O)Nc2cc(C)on2)c1 (stereo not shown) | -53% |
| CCNC(=S)NNC(=O)C1CCCCC1 | 6.17% |
| O=C(c1ccc(CNS(=O)(=O)c2ccc(Br)cc2)cc1)N1CCC2(CC1)OCCO2 | -20.4% |
| Cc1ccc(NC(=O)c2nc[nH]c2C(=O)N[C@@H](C)c2ccccc2)cc1 | 17.5% |
| CCOc1ccc2[nH]c3nc(SCC(=O)OC(C)C)nnc3c2c1 | 13.8% |
| C/C(=N\N(c1ccccc1)c1ccccc1)c1ccc(N)cc1 | 7.43% |
| COc1ccccc1N1CCN(c2ccc3cc(S(=O)(=O)N4CCCCC4)ccc3n2)CC1 | 5.2% |
| CC(Sc1nc2ccccc2s1)C(=O)N(C)Cc1ccccc1 (stereo not shown) | 12.5% |
| O=C(CSc1nncn1-c1ccccn1)Nc1cccc(Cl)c1 | -10.8% |
| O=C(CN1C(=O)CSc2ccccc21)NCCC1=CCCCC1 | 0.901% |
| COc1cc(CSC)nc(-c2ccccc2)n1 | 4.9% |

| Compound | hERG current change (%, negative = inhibition) at 10uM |
| --- | --- |
| CC(C)(C)c1cc(Cl)c(O)c(NC(=S)NC(=O)c2cccnc2)c1 | 5.51% |
| COc1ccc(NC(=O)CCN2C(=O)c3ccncc3C2=O)cc1OC | -7.46% |
| CC1CCN(C(=O)Cn2cc(SCC(=O)NCC3CCCO3)c3ccccc32)CC1 (stereo not shown) | -16.2% |
| COC(=O)C1CCN(C(=O)COC(=O)[C@@H]2CC(O)CN2S(=O)(=O)c2ccc3c(c2)OCCO3)CC1 (stereo partly shown) | 6.94% |
| O=C1c2ccccc2C(=O)c2[nH]c(=O)[nH]c21 | 3.81% |
| Cc1cccc(N2CCN(C(=O)CN(C)S(=O)(=O)c3ccc4c(c3)CCC(=O)N4)CC2)c1C | -60.5% |
| CCOC(=O)Oc1ccc2c(=O)c(Oc3cc(C)cc(C)c3)coc2c1 | -15.9% |
| CCOC(=O)c1c(NC(=S)Nc2ccc(OC)cc2)sc2c1CCCCC2 | 12.5% |
| Cc1cc(C)cc(NC(=O)CN2CCN(CCN=CC3=C(O)CC(c4ccc(Cl)cc4)CC3=O)CC2)c1 (stereo not shown) | -31.9% |
| CCCCCCCCc1c(O)nc(-n2[nH]c(C)c(CCO)c2=O)[nH]c1=O | 5.29% |
| CC(C)CNC(=O)COC(=O)c1ccc(Cl)c(S(N)(=O)=O)c1 | 9.14% |
| Cn1cc(Br)c(C(=O)NC(=S)Nc2ccc(S(N)(=O)=O)cc2)n1 | 10.4% |
| CCOC(=O)C1CCN(c2cc3c(cc2NC(=O)c2cc(OC)ccc2Br)n(C)c(=O)n3C)CC1 | 0.12% |
| Cc1cc(C)c(-c2cc(C(F)(F)F)no2)c(=O)[nH]1 | 9.13% |
| Cc1ccc(C(=O)NC(=S)NNS(=O)(=O)c2ccccc2)cc1 | 10.9% |
| Cc1ccccc1NC(=S)N(Cc1cccnc1)Cc1ccccc1Cl | -11.6% |
| CCOC(=O)C1CCN(C(=O)Cn2cc3c(n2)CCC(C)C3)CC1 (stereo not shown) | -5% |
| c1cnc(Oc2ccc3oc4ccccc4c3c2)nc1 | -3.14% |
| CCC/C=C1/CCCOC(C(=O)NCc2ccccc2)(C(F)(F)F)C1 (stereo not shown) | 1.16% |
